Test results published in publication PMC6039718.
No constants are given. Whether binding was seen depends on the method and setting. Binding seen in cells or lysates may run through a third protein. Some results given as binding are weak or reduced against the parent protein; the word gives no strength. For some assays here: Tags and fused reporters may be left off the sequences shown.

Chains of the proteins cited; added tags and fusions are not shown.
UniProt O15047: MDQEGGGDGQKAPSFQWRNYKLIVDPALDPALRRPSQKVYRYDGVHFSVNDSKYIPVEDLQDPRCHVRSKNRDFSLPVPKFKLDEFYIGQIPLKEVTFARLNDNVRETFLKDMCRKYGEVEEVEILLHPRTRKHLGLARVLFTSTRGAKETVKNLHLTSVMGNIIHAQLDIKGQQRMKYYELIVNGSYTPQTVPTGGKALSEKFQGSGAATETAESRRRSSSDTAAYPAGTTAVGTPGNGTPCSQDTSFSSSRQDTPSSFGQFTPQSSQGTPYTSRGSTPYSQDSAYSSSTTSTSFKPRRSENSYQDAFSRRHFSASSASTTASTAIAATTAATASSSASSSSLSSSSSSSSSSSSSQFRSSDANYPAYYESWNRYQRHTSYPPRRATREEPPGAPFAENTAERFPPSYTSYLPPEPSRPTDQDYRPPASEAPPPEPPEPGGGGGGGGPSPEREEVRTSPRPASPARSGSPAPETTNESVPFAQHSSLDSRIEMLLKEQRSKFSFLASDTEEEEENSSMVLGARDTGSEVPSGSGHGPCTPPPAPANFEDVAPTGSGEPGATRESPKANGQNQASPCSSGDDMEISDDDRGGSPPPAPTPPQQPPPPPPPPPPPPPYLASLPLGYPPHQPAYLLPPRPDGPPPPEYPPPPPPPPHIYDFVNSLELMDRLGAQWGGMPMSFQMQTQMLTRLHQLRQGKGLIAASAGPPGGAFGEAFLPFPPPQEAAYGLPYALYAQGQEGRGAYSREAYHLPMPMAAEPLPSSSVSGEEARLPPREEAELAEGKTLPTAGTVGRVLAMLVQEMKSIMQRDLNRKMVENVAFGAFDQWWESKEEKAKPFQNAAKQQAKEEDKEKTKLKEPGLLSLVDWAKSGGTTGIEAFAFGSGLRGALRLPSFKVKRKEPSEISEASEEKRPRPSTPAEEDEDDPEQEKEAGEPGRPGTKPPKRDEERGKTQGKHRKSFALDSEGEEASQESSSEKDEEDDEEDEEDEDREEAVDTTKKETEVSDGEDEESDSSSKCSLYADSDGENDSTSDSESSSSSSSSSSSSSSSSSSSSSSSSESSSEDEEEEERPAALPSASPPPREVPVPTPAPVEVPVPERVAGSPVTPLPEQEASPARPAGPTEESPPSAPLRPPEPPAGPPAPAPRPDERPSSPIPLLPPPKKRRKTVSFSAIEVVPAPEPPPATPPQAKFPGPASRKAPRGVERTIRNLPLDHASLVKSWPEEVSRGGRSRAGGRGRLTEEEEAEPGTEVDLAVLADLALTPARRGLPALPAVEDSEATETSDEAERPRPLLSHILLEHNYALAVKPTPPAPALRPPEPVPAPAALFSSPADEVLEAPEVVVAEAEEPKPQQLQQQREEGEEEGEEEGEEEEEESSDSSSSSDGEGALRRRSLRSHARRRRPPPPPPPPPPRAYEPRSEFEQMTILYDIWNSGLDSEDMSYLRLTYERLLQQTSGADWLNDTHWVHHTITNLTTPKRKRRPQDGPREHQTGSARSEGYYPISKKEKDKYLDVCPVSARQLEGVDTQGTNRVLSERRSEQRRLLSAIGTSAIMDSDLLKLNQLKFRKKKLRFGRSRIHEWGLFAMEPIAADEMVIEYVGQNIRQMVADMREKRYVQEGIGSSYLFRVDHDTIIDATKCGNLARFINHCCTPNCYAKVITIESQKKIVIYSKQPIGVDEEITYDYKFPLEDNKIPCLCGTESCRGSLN
UniProt Q9UPS6: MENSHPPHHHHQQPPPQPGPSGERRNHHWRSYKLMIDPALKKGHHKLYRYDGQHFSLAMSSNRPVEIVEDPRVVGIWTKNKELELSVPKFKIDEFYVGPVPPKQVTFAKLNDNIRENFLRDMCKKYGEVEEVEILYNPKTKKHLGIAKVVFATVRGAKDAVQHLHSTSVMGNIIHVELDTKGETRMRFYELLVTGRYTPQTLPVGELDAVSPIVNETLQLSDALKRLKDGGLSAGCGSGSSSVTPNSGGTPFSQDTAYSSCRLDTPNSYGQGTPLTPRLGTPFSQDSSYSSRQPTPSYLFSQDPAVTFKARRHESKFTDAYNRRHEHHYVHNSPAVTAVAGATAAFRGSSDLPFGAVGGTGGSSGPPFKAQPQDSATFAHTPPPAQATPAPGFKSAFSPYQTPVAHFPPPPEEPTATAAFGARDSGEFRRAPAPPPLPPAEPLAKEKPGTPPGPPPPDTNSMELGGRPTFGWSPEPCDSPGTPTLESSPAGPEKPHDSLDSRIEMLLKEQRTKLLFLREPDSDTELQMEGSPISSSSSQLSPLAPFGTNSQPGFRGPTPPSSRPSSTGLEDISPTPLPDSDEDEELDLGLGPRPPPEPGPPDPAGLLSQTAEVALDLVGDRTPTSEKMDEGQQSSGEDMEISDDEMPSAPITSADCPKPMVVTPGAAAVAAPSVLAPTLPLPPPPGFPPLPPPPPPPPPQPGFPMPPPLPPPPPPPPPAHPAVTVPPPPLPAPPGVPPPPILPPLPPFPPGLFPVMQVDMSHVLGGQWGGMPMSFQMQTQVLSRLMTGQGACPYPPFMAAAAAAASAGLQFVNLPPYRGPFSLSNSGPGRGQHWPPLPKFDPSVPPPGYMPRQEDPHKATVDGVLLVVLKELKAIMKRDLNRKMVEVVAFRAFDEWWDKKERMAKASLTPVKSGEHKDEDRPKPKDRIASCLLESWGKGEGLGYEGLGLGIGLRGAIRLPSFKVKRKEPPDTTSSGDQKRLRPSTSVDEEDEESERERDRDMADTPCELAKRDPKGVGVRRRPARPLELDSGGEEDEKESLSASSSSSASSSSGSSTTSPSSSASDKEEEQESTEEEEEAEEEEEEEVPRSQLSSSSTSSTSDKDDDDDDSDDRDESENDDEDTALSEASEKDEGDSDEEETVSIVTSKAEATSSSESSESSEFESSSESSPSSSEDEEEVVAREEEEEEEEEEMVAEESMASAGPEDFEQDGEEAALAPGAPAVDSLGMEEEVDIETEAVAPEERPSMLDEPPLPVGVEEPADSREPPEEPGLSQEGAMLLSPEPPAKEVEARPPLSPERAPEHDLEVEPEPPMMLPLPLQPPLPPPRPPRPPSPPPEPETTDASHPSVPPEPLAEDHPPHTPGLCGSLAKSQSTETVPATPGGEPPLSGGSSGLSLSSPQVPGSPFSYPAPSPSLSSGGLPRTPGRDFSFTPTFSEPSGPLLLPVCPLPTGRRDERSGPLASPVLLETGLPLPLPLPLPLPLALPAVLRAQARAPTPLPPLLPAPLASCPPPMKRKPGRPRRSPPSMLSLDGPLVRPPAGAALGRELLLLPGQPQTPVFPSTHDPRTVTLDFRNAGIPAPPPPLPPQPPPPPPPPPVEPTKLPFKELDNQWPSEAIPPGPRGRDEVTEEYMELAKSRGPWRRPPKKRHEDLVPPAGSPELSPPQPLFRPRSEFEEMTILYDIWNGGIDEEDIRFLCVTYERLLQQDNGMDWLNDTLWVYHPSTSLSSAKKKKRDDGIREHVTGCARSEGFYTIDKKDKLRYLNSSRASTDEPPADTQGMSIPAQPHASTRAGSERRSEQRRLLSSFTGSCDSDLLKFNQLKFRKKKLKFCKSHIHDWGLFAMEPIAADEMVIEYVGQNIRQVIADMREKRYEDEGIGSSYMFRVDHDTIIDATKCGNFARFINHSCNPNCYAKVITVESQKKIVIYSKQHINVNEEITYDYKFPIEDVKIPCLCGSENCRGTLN

Assays:
[1] = target: T1, GST-tagged BOD1L fragment 2 (aa 500-1000 of BOD1L) (human) (UniProt Q8NFC6); experiment: pull-down; 1 ug affinity-purified GST or GST fusion protein incubated with pre-clarified HeLa nuclear extract for 3 hr at 4 C, glutathione Sepharose, immunoblotting; only the target purified
T1 sequence: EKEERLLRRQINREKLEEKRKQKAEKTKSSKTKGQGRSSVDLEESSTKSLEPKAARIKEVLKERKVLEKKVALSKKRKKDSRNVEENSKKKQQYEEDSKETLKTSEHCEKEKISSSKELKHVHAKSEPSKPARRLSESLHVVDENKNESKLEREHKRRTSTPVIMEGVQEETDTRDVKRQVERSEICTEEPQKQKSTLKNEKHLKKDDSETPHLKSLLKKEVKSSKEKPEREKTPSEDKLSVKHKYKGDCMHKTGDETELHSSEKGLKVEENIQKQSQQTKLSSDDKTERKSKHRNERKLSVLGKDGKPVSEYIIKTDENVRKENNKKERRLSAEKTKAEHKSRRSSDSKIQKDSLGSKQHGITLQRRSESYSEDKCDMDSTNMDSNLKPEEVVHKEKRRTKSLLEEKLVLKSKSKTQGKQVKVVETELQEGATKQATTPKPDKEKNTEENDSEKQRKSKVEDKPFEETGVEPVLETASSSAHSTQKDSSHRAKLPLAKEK

[2] = target: GST-tagged BOD1L fragment 1 (aa 1-600 of BOD1L) (human) (UniProt Q8NFC6); experiment: as above
[3] = target: BOD1L (human (endogenous in HeLa)) (UniProt Q8NFC6); experiment: co-IP; HeLa nuclear extracts clarified at 44,000 x g, immunoprecipitated with 5 ug of the indicated antibody or IgG for 3 hr at 4 C, protein-A Sepharose, immunoblotting; reciprocal immunoprecipitations

| binding [1] | binding [2] | binding [3] | Substance |
| --- | --- | --- | --- |
| no binding | binds | binds | SETD1A (from UniProt O15047 1-1707) (enzyme) |
|  | no binding | no binding | SETD1B (from UniProt Q9UPS6 1-1966) (enzyme) |
